Data taken from PubChem BioAssay AID493035 (The Scripps Research Institute Molecular Screening Center, 2011).
Out of some 2,000 compounds screened, about 45 (2%) were called active.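 Rule for the calls: active = inhibition above the mean of all tested compounds plus 3 SD (cut at about 49% in these data); inactive = the rest.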 Some of the results follow. Where a SMILES comes first, the peptide text is derived from it.

target: Perilipin-5 (Homo sapiens) + 1-acylglycerol-3-phosphate O-acyltransferase ABHD5 (Homo sapiens) (UniProt Q00G26+Q8WTS1); experiment: ABHD5-PLIN5 interaction inhibitors, pilot screen, cell lysate, split luciferase complementation, luminescence, NIH validation set (AID 493035);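 note: 0% = DMSO only wells while the 100% control is not stated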; settings: split G. princeps luciferase complementation, lysates, 4 h; at 7.9 µM, active compounds read high
UniProt Q00G26, sequence (Q00G26 whole entry, looked up): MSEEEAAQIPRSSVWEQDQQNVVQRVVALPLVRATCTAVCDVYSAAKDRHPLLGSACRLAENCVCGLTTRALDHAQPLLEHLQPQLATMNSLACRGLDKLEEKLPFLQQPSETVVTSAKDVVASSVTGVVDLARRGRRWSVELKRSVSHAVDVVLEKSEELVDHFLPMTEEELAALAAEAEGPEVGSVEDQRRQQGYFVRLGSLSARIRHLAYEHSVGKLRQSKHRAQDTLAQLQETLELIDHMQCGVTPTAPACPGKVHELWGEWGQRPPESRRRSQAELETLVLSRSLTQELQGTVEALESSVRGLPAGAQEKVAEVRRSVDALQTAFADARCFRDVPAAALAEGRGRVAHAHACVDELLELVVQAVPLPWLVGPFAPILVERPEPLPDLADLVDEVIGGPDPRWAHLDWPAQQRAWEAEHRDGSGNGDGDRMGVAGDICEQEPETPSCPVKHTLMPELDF
UniProt Q00G26, sequence (Q8WTS1 whole entry, looked up): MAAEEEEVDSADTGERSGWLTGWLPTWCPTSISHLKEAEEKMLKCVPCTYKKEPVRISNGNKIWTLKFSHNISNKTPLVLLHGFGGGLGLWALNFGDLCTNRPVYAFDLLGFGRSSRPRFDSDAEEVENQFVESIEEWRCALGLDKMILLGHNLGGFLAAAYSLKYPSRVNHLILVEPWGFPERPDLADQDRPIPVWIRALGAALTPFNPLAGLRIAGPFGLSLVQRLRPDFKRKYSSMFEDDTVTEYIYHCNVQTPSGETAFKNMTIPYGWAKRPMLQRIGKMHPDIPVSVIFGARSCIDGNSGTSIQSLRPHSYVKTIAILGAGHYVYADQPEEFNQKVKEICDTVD

SMILES	inhibition
Cc1ccc(C(=O)COC(=O)c2cccc(N3C(=O)c4c(C)nc5ccccc5c4C3=O)c2)cc1C	inactive: 3.75%
Cc1cc(O)c(C(C)C)cc1C1(c2cc(C(C)C)c(O)cc2C)OC(=O)c2ccccc21	inactive: 19.5%
COc1ccc(C2CC(c3ccc([N+](=O)[O-])cc3)=NN2C(=O)c2ccccc2)cc1OC (stereo not given)	inactive: -27.7%
CCCCCC(O)c1cccc(OCc2ccc3ccccc3n2)c1 (stereo not given)	inactive: 11.6%
CC(=O)N1CC2(C)CN(C(C)=O)CC(C)(C1)C2	inactive: 1.29%
O=c1ccn([C@@H]2O[C@H](CO)[C@@H](O)[C@H]2O)c(=O)[nH]1	inactive: 1.08%
Cc1cc(OC(C(=O)O)c2ccccc2)c2c(C)c(Cc3ccccc3)c(=O)oc2c1 (stereo not given)	inactive: 11.8%
C[N+]12CCCCC1C(COC(=O)c1ccc3c(c1)OCO3)CCC2 (stereo not given)	inactive: 1.79%
CCCCNc1cc(C(=O)O)cc(S(N)(=O)=O)c1Oc1ccccc1	inactive: -1.78%
CC1(C)CC(CC(=O)O)(c2ccc(Cl)cc2)CCO1 (stereo not given)	inactive: 3.79%
COc1c2c(nc3occc13)C(CC=C(C)C)(OC)C(O)CC2 (stereo not given)	inactive: -4.3%
COc1cc(CC(=O)NCCc2ccc(S(N)(=O)=O)cc2)cc(OC)c1OC	inactive: 3.06%
COc1ccc(C(=O)CCN2CCc3cc(OC)c(OC)cc3C2)cc1	inactive: 13.3%
Cc1cccc(OCC(=O)Nc2ccc(C(=O)NCC(C)C)cc2)c1	inactive: -3.36%
C[C@H]([C@@H](N)C(=O)N[C@@H](C(=O)O)[C@@H]1O[C@H](n2ccc(=O)[nH]c2=O)[C@@H](O)[C@H]1O)[C@@H](O)c1ccc(O)cn1	inactive: 8.59%
CC(=O)NC(CC(C)C)C(=O)NC(Cc1ccccc1)C(N)=O (stereo not drawn) (Ac-Leu-Phe-NH2; configuration not given here)	inactive: -2.12%
Cc1ccnc(NS(=O)(=O)c2ccc(N)cc2)n1	inactive: -3.85%
Cc1c(OCC(=O)NC(Cc2c[nH]c3ccc(O)cc23)C(=O)O)ccc2c3c(c(=O)oc12)CCC3 (stereo not given)	inactive: -12.8%
NC(=O)OCC(COC(N)=O)c1ccccc1	inactive: -5.61%
COc1cc(CNc2ccc(C)c(C)c2)cc(OC)c1OC	inactive: 1.18%

SMILES	inhibition
Cc1ccc(C2CC(c3cccs3)=NN2C(=O)c2ccco2)o1 (stereo not given)	inactive: 0.65%
O=C(CNC(=O)OCc1ccccc1)NC1CCCCCC1	inactive: -6%
CC(=O)N[C@@H](CS)C(=O)O	inactive: -2.08%
O=C(OCC(O)C(O)COC(=O)c1ccccc1)c1ccccc1 (stereo not given)	inactive: -5.65%
O=C(CCc1ccccc1)Nc1ccccc1C(F)(F)F	inactive: -12.3%
CC(=O)c1c(C)c(C)c2n1CCn1c(C)ccc1-2	inactive: 8.49%
CC1(C)CC(=O)C(C2(O)C(=O)Nc3ccccc32)CO1 (stereo not given)	inactive: -12.2%
O=C(CCCCC(=O)NC1CCCC1)NC1CCCC1	inactive: 3.84%
CC[C@H](C)C(=O)O[C@H]1C[C@@H](C)C=C2C=C[C@H](C)[C@H](CC[C@@H]3C[C@@H](O)CC(=O)O3)[C@H]21	inactive: 6.1%
Cc1nc(C2CC(=O)OC23CCCCC3)cs1 (stereo not given)	inactive: -14.9%
COc1ccc(C(=O)O)cc1F	inactive: 1.71%
COc1cccc(OCc2cc(C3Nc4ccccc4C(=O)N3Cc3ccco3)ccc2OC)c1 (stereo not given)	inactive: 33.7%
CCN(CC)C(=S)SSC(=S)N(CC)CC	active: 95.2%
Nc1ccc2cn[nH]c2c1	inactive: -10.6%
CCOC(=O)C(NC(C)=O)C(O)c1ccc([N+](=O)[O-])cc1 (stereo not given)	inactive: -12%
COc1cc2cc(C(=O)O)n(C)c2c(OC)c1OC	inactive: 6.31%
O=C1OC(Nc2ccc3c(c2)OCO3)c2ccccc21 (stereo not given)	inactive: 16.9%
CCNC(=O)c1c(N)sc2c1CCCCC2	inactive: 39.1%
Nc1c2c(nc3ccccc13)CCCC2	inactive: 9.33%
COc1ccc(C(C)N2CC34C=CC(O3)C(C(=O)OCC(C)C)C4C2=O)cc1 (stereo not given)	inactive: -7.66%

SMILES	inhibition
COc1cc2c3c(c1)C1(C(=O)N3C(C)(C)C=C2C)C(C#N)=C(N)Oc2cc(C)oc(=O)c21 (stereo not given)	inactive: -5.05%
COc1cc2c(cc1OC)C(C)=NC1(CCCCC1)C2	inactive: -3.54%
Oc1ccc(COCc2ccccc2)c2cccnc12	inactive: 6.53%
O=C(O)c1cc2cc(Cl)cc(Cl)c2oc1=O	inactive: 4.45%
O=C(NC(Nc1ccccn1)C(Cl)(Cl)Cl)c1ccccc1 (stereo not given)	inactive: 11.4%
C[C@]12C[C@H](O)[C@H]3[C@@H](CCC4=CC(=O)CC[C@@]43C)[C@@H]1CC[C@@H]2C(=O)CO	inactive: 3.18%
O=C(NCCNc1ccc(Cl)cc1[N+](=O)[O-])c1cccnc1	inactive: 4.98%
COc1ccc(NC(=S)NCCc2c[nH]c3ccccc23)cc1	inactive: -5.45%
CC(C)Oc1ccc(C2CC(=O)N(c3ccc(C(=O)O)cc3)C2=O)cc1 (stereo not given)	inactive: -5.83%
c1ccc(-c2ccccn2)nc1	inactive: 4.87%
CCSc1nc(O)c(C2OC(=O)c3c2ccc(OC)c3OC)c(=O)n1CC (stereo not given)	inactive: 0.24%
COCCOC(=O)C1=C(N)OC2=C(C(=O)CCC2)C1c1cccnc1 (stereo not given)	inactive: 0.01%
Cn1c2ccc(CC(=O)O)cc2c2cc(CC(=O)O)ccc21	inactive: 5.41%
NS(=O)(=O)c1cc2c(cc1Cl)NC(CSCc1ccccc1)=NS2(=O)=O	inactive: -6.59%
CCNC(=O)c1sc2cc(C)ccc2c1Cl	inactive: -3.52%
COc1cc(NC(=O)N[C@@H](Cc2ccccc2)C(=O)O)cc(OC)c1	inactive: -7.47%
Cc1cc(NS(=O)(=O)c2ccc(N)cc2)no1	inactive: -7.6%
COc1ccc2[nH]c3c(c2c1)CCn1c-3nc2ccccc2c1=O	inactive: -4.19%
Cc1ccc2nc(NC3=NC(CC(=O)O)C(=O)N3)nc(C)c2c1 (stereo not given)	inactive: 2.57%
CC(=O)[C@@]1(O)CC[C@H]2[C@@H]3C[C@H](C)C4=CC(=O)CC[C@]4(C)[C@H]3CC[C@@]21C	inactive: -6.6%
